# Results taken from the RNAGym collection of RNA variant scans (doi:10.1093/nar/gkz1192).
# The source gives no read counts; variants with many changes may rest on few reads.
# B1: CPEB3 Ribozyme (parent)
# chain: UAACAGGGGGCCACAGCAGAAGCGUUCACGUCGCAGCCCCUGUCAGAUUCUGGUGAAUCUGCGAAUUCUGCUGUAUAUCUC
# Variants of: B1
# Experiment: self-cleavage, relative activity (ratio to wild type); higher = more cleavage; in vitro, sequencing
# Method in brief: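 Relative activity compares each variant's cleaved/total read fraction with that of the unmutated ribozyme. To get these fractions, barcoded CPEB3 ribozyme libraries from rounds of error-prone PCR were transcribed with T7 RNA polymerase for 5 hours at 37°C and then given 15 min of DNase I treatment before EDTA was added. The RNAs were reverse transcribed with template switching and sequenced on Illumina, and DNA sequencing linked barcodes to variants. A minimum of 5 reads applied, and three batches were averaged.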
row,Variant,self-cleavage
1,U26C U49C U54C G61A A65G U72A,0.04
2,U26C U49C U58C A65G,0.22
3,U26C U49C U60C,0.14
4,U26C U49C U67C,0.21
5,U26C U49C U80A,0.74
6,U26C U49C U80C,0.14
7,U26C U51A A57G C59A U60C U72C U78C,0.06
8,U26C U51A A65G,0.14
9,U26C U51A A65G U76G,0.2
10,U26C U51A C59A U78C,0.19
11,U26C U51A G63A A64G A65G U66C C81U,0.07
12,U26C U51A U60A A75U,0.54
13,U26C U51A U69A,0.19
14,U26C U51A U69A U78C,0.12
15,U26C U51A U72C,0.72
16,U26C U51A U78C,0.33
17,U26C U51C A56G U69C,0.14
18,U26C U51C A57G U60A U76A,0.19
19,U26C U51C A64G,0.34
20,U26C U51C G52C U54C U72A,0.17
21,U26C U51C U58C U67C U78C,0.1
22,U26C U51C U60C,0.24
23,U26C U51C U66C,0.15
24,U26C U51C U67A,0.39

row,Variant,self-cleavage
1,U26C U51C U67C,0.11
2,U26C U51C U78C,0.32
3,U26C U51G G61C,0.14
4,U26C U51G U67C A75U,0.38
5,U26C U54A A57G,0.43
6,U26C U54A A57U,0.14
7,U26C U54A A65G,0.18
8,U26C U54A C71A,0.16
9,U26C U54A U67C,0.1
10,U26C U54C A65G U76C,0.32
11,U26C U54C A77G,0.3
12,U26C U54C C62A A65G,0.33
13,U26C U54C G55C U72A U80A,0.2
14,U26C U54C U60A U78C,0.41
15,U26C U54C U60C U69G,0.36
16,U26C U54C U67A C68U,0.12
17,U26C U54C U72A A77G,0.49
18,U26C U54G G63U,0.41
19,U26C U54G U80C,0.19
20,U26C U58C A75G,0.17
21,U26C U58C A77U,0.47
22,U26C U58C C62U U72C U74C,0.14
23,U26C U58C G61A,0.07
24,U26C U58C G63C,0.2

row,Variant,self-cleavage
1,U26C U58G A64G,0.11
2,U26C U58G U69A U72G,0.16
3,U26C U58G U69C U78C,0.02
4,U26C U58G U80G,0.06
5,U26C U60A A64G,0.15
6,U26C U60A A75G,0.15
7,U26C U60A C79U,0.35
8,U26C U60A U67C,0.13
9,U26C U60A U69C,0.17
10,U26C U60A U80C,0.53
11,U26C U60C A64U U78A,0.17
12,U26C U60C A65G U69A,0.15
13,U26C U60C G70A,0.06
14,U26C U60C U66A U67A U76C A77U,0.15
15,U26C U60C U67C A75U,0.18
16,U26C U60C U69C,0.32
17,U26C U66A U80A,0.25
18,U26C U66C A77G,0.2
19,U26C U66C U69A,0.14
20,U26C U66C U69A A75G,0.06
21,U26C U66C U69C,0.32
22,U26C U66C U72G U80C,0.11
23,U26C U66C U78C,0.2
24,U26C U67A U76C,0.26

row,Variant,self-cleavage
1,U26C U67C A75G U80C,0.29
2,U26C U67G C71U,0.16
3,U26C U69A A75U,0.21
4,U26C U69A U72C U76A C81A,0.08
5,U26C U69A U78A,0.09
6,U26C U69A U78C,0.42
7,U26C U69A U80C,0.06
8,U26C U69C A77G,0.26
9,U26C U69C C71A U72C,0.12
10,U26C U69C C81U,0.1
11,U26C U69C U72A U78C,0.23
12,U26C U69C U72C U76A A77C,0.14
13,U26C U69C U76A,0.24
14,U26C U69C U78A,0.23
15,U26C U69C U78C,0.28
16,U26C U72A A77G,0.6
17,U26C U72A U76C,0.2
18,U26C U72C A75G,0.78
19,U26C U72C A75U,0.49
20,U26C U72C U74C A75G,0.63
21,U26C U74C U80A,0.75
22,U26C U74C U80C,0.9
23,U26G A28C A45U U60C U78C,0.06
24,U26G A28C C32U A35G U51C C71A,0.04

row,Variant,self-cleavage
1,U26G A28G A45U,0.17
2,U26G A28G U31C C71A,0.21
3,U26G A28U U31A U60C A64G U67A,0
4,U26G A35G A56G U58C U80A,0.45
5,U26G A35G C71G,0.33
6,U26G A35G U41G U74C,0.05
7,U26G A35U U43C A47G,0.32
8,U26G A45G G52U U78C,0.17
9,U26G A45G U54A A56G U72C,0.05
10,U26G A45G U72A,0.2
11,U26G A56G A64G U80C,0.16
12,U26G A56U A64U,0.11
13,U26G A56U U78A,0.18
14,U26G A57G U69A,0.08
15,U26G A64G U67A,0.07
16,U26G C34U U49G C62U C68G,0.04
17,U26G C68U U69C,0.22
18,U26G G33C U49G U60A A65G U69A U72C,0.04
19,U26G G33U U80C,0.5
20,U26G G36A U43C U66C,0.09
21,U26G G53A U72C,0.15
22,U26G G61C U67C,0.13
23,U26G U31A U54C A75G U78C,0.23
24,U26G U31A U80C,0.29

row,Variant,self-cleavage
1,U26G U31C G46U U69C,0.06
2,U26G U31C U41C U60C A64G,0.19
3,U26G U31C U69C U80A,0.27
4,U26G U41C A45U,0.08
5,U26G U41C C50U,0.08
6,U26G U41C U69A,0.15
7,U26G U43C U49C A65G,0.15
8,U26G U43G A45U U78C,0.3
9,U26G U48A A75U,0.2
10,U26G U48C A56G G61A U72C,0.03
11,U26G U58C G63A U66C,0.05
12,U26G U58C U76A,0.11
13,C27A A28C C37A U66C,0.13
14,C27A A28G A56G U80C,0.09
15,C27A A28G G42A U48A U72C,0.2
16,C27A A28G U31A,0.06
17,C27A A28G U41C A65G,0.27
18,C27A A28G U78C,0.17
19,C27A A28U C32U A45C A56G U58C A77G,0.07
20,C27A A28U U31C U51C G52A U78C,0.05
21,C27A A28U U67G G73A U78C,0.05
22,C27A A35G G36A U58C U67A A75G,0.09
23,C27A A35U U48C U74C,0.12
24,C27A A45U A47U,0.17

row,Variant,self-cleavage
1,C27A A47G A57G C79U U80C,0.28
2,C27A C29A U54C,0.24
3,C27A C29G U41C G52A A56G U66C,0.09
4,C27A C32A A35U U72C,0.06
5,C27A C32U U41C U58G,0.12
6,C27A C32U U58C U76C,0.05
7,C27A C37U U41A,0
8,C27A C38U U41C U60C A64G,0.08
9,C27A G30A A47G,0.1
10,C27A G46C U48C A64G,0.14
11,C27A G53A U69A,0.19
12,C27A G63A U78C,0.2
13,C27A U31A A47G,0.13
14,C27A U31A U67C U74C,0.14
15,C27A U31C A35G U54C C62U U78G,0.11
16,C27A U43C U49C A56U U69C U72C,0.07
17,C27A U43C U67A,0.14
18,C27A U48C U67C,0.07
19,C27A U48C U72A,0.13
20,C27A U49C U66C U69A,0.11
21,C27A U51G U76C U78C,0.13
22,C27A U54C A56G U58A,0.13
23,C27A U54C A57U U74A A75G,0.08
